Source: US4150049A, “Esters of aromatic sulfonic acids” (The Government of the United States, priority 1977, dated 1979)
At least one structure is not confirmed: it was looked up by name or label, or the drawing left a doubt.

How the values were obtained:
[1] = alkaline hydrolysis / chemical reactivity of the nitrophenyl esters; assay type: physicochemical; conditions: for rate of alkaline hydrolysis k2nd × 10^-2: head: k2nd × 10^-2
thrombin [2] = test: competitive inhibition of enzymatic hydrolysis of nitrophenyl Nα-carbobenzyloxylysinate, thrombin; assay type: biochemical, bovine and human; conditions: Dixon
plasmin [3] = target: T1, plasmin (Homo sapiens, UniProt P00747); test: nitrophenol release (substrate behavior) with plasmin; assay type: biochemical; conditions: for nitrophenol release, plasmin: pH 8.3, 25° C.
thrombin [4] = test: nitrophenol release (substrate behavior) and inactivation of thrombin, residual enzyme titrated with NPGB; assay type: biochemical, bovine or human; conditions: for nitrophenol release, thrombin: pH 8.3, 25° C.
trypsin = target: T2, trypsin (Bos taurus, UniProt P00760); test: nitrophenol release (substrate behavior) with trypsin; assay type: biochemical, bovine; conditions: for nitrophenol release, trypsin: pH 8.3, 25° C.
T2 sequence (P00760 24-246): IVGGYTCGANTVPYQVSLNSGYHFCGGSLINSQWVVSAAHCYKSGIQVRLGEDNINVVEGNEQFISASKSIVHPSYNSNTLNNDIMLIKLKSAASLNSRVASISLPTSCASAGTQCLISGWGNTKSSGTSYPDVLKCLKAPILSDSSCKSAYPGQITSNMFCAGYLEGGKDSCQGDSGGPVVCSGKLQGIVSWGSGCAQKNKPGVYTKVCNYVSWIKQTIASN

plasma kallikrein [5] = target: T3, plasma kallikrein (Homo sapiens, UniProt P03952); test: nitrophenol release (substrate behavior) with plasma kallikrein; assay type: biochemical; conditions: for nitrophenol release, plasma kallikrein: pH 8.3, 25° C.
chymotrypsin = chymotrypsin (Bos taurus, UniProt P00766); test: nitrophenol release (substrate behavior) with chymotrypsin; assay type: biochemical, bovine; conditions: for nitrophenol release, chymotrypsin: pH 8.3, 25° C.
plasmin [6] = target: T1, plasmin; test: Dixon plot competitive inhibition of esterase action of human plasmin; assay type: biochemical; set-up: from tissue; host or cells: Cohn fraction III (human plasma); conditions: pH 6
Experimental: (§1) In accordance with the present invention, nitrophenyl m- and p-amidinophenylmethanesulfonate were prepared, and these compounds were examined for their properties related to inhibition and inactivation of specific enzymes. With regard to the enzymes employed, bovine β-trypsin and thrombin were chromatographically purified by known procedures. Human plasminogen was purified from Cohn fraction III and activated with streptokinase. Human plasma kallikrein was purified about 1000-fold from activated Cohn fraction IV, by affinity chromatography. Human thrombin was prepared by the method of Miller and Copeland. Bovine chymotrypsin three times crystallized was also employed, along with streptokinase.
(§2) Enzyme concentrations were determined by titration with nitrophenyl p-guanidinobenzoate in the case of trypsin, plasmin, and thrombin, whereas chymotrypsin molarity was based on weight. Kallikrein concentration is expressed in enzyme units as measured in a pH-state by esterase action on 0.02 M tos-Arg-OMe in 0.06 M KCl at pH 7.85; one unit corresponds to the hydrolysis of 1 μmole of ester per minute under these conditions.
(§3) Optical density change at 340 nm was measured with double beam operation as described above. […]

α-Chymotrypsin = target: T4, α-Chymotrypsin (Bos taurus, UniProt P00766); test: Dixon plot competitive inhibition of hydrolysis of benzyloxy-lysine-nitrophenyl ester by α-chymotrypsin; assay type: biochemical, bovine
T4 construct: α-Chymotrypsin
Experimental: as §1, §2, §3

β-Trypsin = target: T5, β-Trypsin (Bos taurus, UniProt P00760); test: Dixon plot competitive inhibition of hydrolysis of benzyloxy-lysine-nitrophenyl ester by β-trypsin; assay type: biochemical, bovine
T5 construct: bovine β-trypsin; made in house
T5 sequence (P00760 24-246): T2 sequence (P00760 24-246)
Experimental: as §1, §2, §3

plasma kallikrein [7] = target: T3, plasma kallikrein; test: Dixon plot competitive inhibition of esterase action of human plasma kallikrein; assay type: biochemical; set-up: from tissue; conditions: pH 6
Experimental: as §1, §2, §3

[8] = target: trypsin, thrombin, plasmin, and plasma kallikrein; test: complex formation with trypsin-like enzymes (summary); assay type: biochemical; conditions: summary range; read-out: K1 values for complex with trypsin, thrombin, plasmin, and plasma kallikrein
thrombin [9] = test: coagulation assay, action of thrombin on fibrinogen; assay type: biochemical; conditions: 2×10^-5 M p-isomer, thrombin 2.6×10^-6 M, pH 7.38

T3 sequence (P03952 20-638): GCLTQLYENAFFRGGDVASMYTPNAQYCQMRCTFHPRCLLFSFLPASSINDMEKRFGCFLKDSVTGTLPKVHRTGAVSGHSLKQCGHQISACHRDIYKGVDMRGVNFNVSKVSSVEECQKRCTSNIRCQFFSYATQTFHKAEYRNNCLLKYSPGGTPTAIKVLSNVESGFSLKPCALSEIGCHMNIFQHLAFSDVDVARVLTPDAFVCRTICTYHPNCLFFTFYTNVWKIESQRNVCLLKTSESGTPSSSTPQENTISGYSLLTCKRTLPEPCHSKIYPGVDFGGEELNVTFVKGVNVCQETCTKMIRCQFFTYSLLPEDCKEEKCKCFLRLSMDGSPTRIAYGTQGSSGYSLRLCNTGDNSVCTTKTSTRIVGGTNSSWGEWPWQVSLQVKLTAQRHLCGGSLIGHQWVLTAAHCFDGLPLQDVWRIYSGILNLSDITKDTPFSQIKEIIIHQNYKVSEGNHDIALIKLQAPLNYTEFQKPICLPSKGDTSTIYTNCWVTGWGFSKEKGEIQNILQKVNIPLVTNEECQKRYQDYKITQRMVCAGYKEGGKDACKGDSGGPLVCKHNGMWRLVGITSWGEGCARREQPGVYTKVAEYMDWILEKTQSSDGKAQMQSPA
T1 sequence (P00747 97-810): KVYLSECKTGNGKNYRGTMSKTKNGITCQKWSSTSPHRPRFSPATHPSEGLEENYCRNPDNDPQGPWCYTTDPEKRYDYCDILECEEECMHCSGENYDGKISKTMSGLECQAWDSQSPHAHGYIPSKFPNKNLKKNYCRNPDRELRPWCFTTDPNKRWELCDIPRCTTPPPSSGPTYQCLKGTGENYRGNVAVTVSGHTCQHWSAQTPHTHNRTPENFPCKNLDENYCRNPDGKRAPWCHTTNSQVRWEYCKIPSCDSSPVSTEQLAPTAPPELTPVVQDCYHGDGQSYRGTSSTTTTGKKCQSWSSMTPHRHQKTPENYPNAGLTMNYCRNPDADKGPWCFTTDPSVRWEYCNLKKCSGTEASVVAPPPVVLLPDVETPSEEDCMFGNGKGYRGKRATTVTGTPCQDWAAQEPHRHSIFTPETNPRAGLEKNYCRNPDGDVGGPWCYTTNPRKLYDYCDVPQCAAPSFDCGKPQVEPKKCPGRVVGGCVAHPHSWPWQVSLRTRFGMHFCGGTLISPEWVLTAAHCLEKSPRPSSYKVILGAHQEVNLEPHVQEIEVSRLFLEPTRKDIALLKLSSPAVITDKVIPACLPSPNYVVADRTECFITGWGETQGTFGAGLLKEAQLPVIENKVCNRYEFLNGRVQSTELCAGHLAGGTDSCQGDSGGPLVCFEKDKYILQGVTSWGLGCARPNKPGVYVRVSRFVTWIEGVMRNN

| SMILES | rate of alkaline hydrolysis k2nd × 10^-2 ([1]; pH 10.0) [min^-1 M^-1] | mode of inhibition, thrombin (thrombin [2]) | nitrophenol release, plasmin (plasmin [3]) | nitrophenol release, thrombin (thrombin [4]) | nitrophenol release, trypsin (trypsin) | nitrophenol release, plasma kallikrein (plasma kallikrein [5]) | nitrophenol release, chymotrypsin (chymotrypsin) | chemical reactivity relative to a benzene sulfonate [1] | rate of hydrolysis relative to NPGB ([1]; pH 8.3) | rate of alkaline hydrolysis k2nd × 10^-2 ([1]; pH 9.5) [min^-1 M^-1] | mode of inhibition, plasmin (plasmin [6]) | mode of inhibition, chymotrypsin (α-Chymotrypsin) | mode of inhibition, trypsin (β-Trypsin) | mode of inhibition, plasma kallikrein (plasma kallikrein [7]) | Ki [8] [µM] | other results |
| --- | --- | --- | --- | --- | --- | --- | --- | --- | --- | --- | --- | --- | --- | --- | --- | --- |
| Cc1ccc(S(=O)(=O)Oc2ccc([N+](=O)[O-])cc2)cc1 [p-Methylbenzenesulfonate, Nitrophenyl p-Methylbenzenesulfonate, reference compound] |  |  |  |  |  |  |  |  |  |  |  |  |  |  |  | rate of alkaline hydrolysis k2nd × 10^-2 ([1]; pH 12.7): 0.15 min^-1 M^-1 |
| Cc1cccc(CS(=O)(=O)Oc2ccc([N+](=O)[O-])cc2)c1 [m-Methylphenylmethanesulfonate, Nitrophenyl m-Methylphenylmethanesulfonate] | 16.1 |  |  |  |  |  |  |  |  |  |  |  |  |  |  |  |
| N=C(N)c1cccc(CS(=O)(=O)Oc2ccc([N+](=O)[O-])cc2)c1 [m-isomer] |  | competitive inhibitors | absence of nitrophenol release | absence of nitrophenol release | absence of nitrophenol release | absence of nitrophenol release | absence of nitrophenol release | considerably more reactive than a benzene sulfonate | more rapid than that of nitrophenyl p-guanidino benzoate | 34.4 | competitive inhibitors | competitive inhibitors | competitive inhibitors | competitive inhibitors | 10 to 100 | loss of enzyme on titration, plasmin (plasmin [3]; titration of residual enzyme): No loss of enzyme; loss of enzyme on titration, thrombin (thrombin [4]; titration of residual enzyme): No loss of enzyme; loss of enzyme on titration, trypsin (trypsin; titration of residual enzyme): No loss of enzyme; loss of enzyme on titration, plasma kallikrein (plasma kallikrein [5]; titration of residual enzyme): No loss of enzyme; loss of enzyme on titration, chymotrypsin (chymotrypsin; titration of residual enzyme): No loss of enzyme |
| N=C(N)c1ccc(CS(=O)(=O)Oc2ccc([N+](=O)[O-])cc2)cc1 [p-isomer] |  | competitive inhibitors | no evidence of nitrophenol release | stoichiometric release with inactivation | no evidence of nitrophenol release | no evidence of nitrophenol release | no evidence of nitrophenol release | considerably more reactive than a benzene sulfonate | more rapid than that of nitrophenyl p-guanidino benzoate | 73.3 | competitive inhibitors | competitive inhibitors | competitive inhibitors | competitive inhibitors | 10 to 100 | duration of inactive state of thrombin after removal of excess reagent (thrombin [4]; after gel filtration): at least 48 hr; burst with NPGB titrant after exposure of thrombin (thrombin [4]; titration of residual enzyme with NPGB): failure to produce a burst with this titrant; anticoagulant action on thrombin (thrombin [9]): slow inactivation |
| Cc1ccc(CS(=O)(=O)Oc2ccc([N+](=O)[O-])cc2)cc1 [p-Methylphenylmethanesulfonate, Nitrophenyl p-Methylphenylmethanesulfonate] | 23.1 |  |  |  |  |  |  |  |  |  |  |  |  |  |  |  |
| N=C(N)Nc1ccc(C(=O)Oc2ccc([N+](=O)[O-])cc2)cc1 [p-Guanidinobenzoate, nitrophenyl p-guanidinobenzoate, reference compound] |  |  |  |  |  |  |  |  |  |  |  |  |  |  |  | rate of alkaline hydrolysis k2nd × 10^-2 ([1]; pH 8.3): 0.45 min^-1 M^-1 |
